Hit rate of the full screen: of about 150,000 compounds, about 6,500 (4.3%) were called active. Inconclusive means that the source gave no clear call. Such entries were picked first, then a sample of the others. The call rests on the fitted dose curve; in most records, active means well fitted inhibition curve with a large enough effect (not every such curve was filed as active); inconclusive means small, poorly fitted or top-dose-only effect, or another doubt; inactive means no such curve, though single readings can be large or run the other way. Potencies of inconclusive entries are doubtful fits and often do not repeat.
Molecular target: 15-hydroxyprostaglandin dehydrogenase [NAD(+)] (Homo sapiens) (UniProt P15428)
UniProt P15428, sequence (P15428 whole entry, looked up): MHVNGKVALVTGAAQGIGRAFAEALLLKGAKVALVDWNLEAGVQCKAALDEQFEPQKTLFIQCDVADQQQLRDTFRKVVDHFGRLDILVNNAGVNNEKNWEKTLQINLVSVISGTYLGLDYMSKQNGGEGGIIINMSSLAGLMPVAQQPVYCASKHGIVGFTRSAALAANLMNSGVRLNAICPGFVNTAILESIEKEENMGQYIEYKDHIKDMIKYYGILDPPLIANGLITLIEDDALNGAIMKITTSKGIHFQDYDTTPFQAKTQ
Experiment: qHTS Assay for Inhibitors of HPGD (15-Hydroxyprostaglandin Dehydrogenase)
Conditions: purified HPGD, NADH fluorescence kinetic, PGE2 substrate; activity change, negative = inhibition: active compounds read low
Method in brief: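 NADH formation kinetics: reaction with 30 uM PGE2 and 1 mM NAD+ (final), 20 nM enzyme, Tris-HCl pH 8 with Tween 20, after 15 min compound preincubation at room temperature. Fluorescence change, last versus first of five reads.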
On the % scale 0 is the no-effect control and ±100 the full control effect; potency means the concentration at half of the fitted maximal effect; tags describe the fitted curve by direction and shape.

Potency, active:
COC(=O)c1cc(=O)c(O)c2c(O)c(O)ccc2c1 7.94 µM

Potency, inconclusive:
CCc1ccccc1NC(=O)CSc1nc2n[nH]c(C)c2c(=N)n1-c1cccc(OC)c1 35.5 µM [inhibitor, partial curve], CC(C)NC(=S)N/N=C/c1cc(Br)ccc1O 7.94 µM [inhibitor, partial curve], CNc1nnc(-c2cc3ccccc3oc2=O)s1 14.1 µM [inhibitor, partial curve], CCOC(=O)C1CCCN(C(=O)CN2C(=O)/C(=C/c3ccc(OC)cc3)Oc3ccccc32)C1 (stereo not given) 5.01 µM [inhibitor, single point], O=C(NCc1cccs1)c1cc2c(s1)-c1ccccc1OC2 31.6 µM [inhibitor, partial curve], Cc1ccc(C)c(-n2c(N)c(C(N)=O)sc2=S)c1 25.1 µM [inhibitor, partial curve], COc1cccc(-c2nc(Nc3ccncc3)c3ccccc3n2)c1 28.2 µM [inhibitor, single point], CN(C)c1ccc(/C=N/NC(=S)NCc2ccccc2)cc1 28.2 µM [inhibitor, partial curve], CN(C)/C(CN1CCN(C=O)CC1)=C1\N=C(c2ccccc2)OC1=O 14.1 µM [inhibitor, partial curve, poor fit], N#Cc1ccc2ccn(CC(=O)N3CCCc4ccccc43)c2c1 31.6 µM [inhibitor, partial curve], COc1ccc(-c2nc(CCNC(=O)c3ccco3)cs2)cc1OC 14.1 µM [inhibitor, partial curve], Cc1ccc2nc(-c3ccc(NC(=O)CN4C(=O)c5ccccc5C4=O)cc3)sc2c1 20 µM [inhibitor, partial curve, poor fit], O=C(NCc1cccs1)c1cc2c(s1)CCCC2 25.1 µM [inhibitor, single point], O=C(c1cc2nc(-c3ccco3)cc(C(F)(F)F)n2n1)N1CCCCCC1 0.398 µM [inhibitor, full curve]

Activity change, negative = inhibition, inactive:
CN(C)Cc1ccccc1-c1cncnc1NCc1cccs1 -14%, CC1(C)CC(=O)C=C(NCc2ccccc2)C1 -13.1%, CN(C)CC[C@H](c1ccc(Br)cc1)c1ccccn1 -2.01%, O=C(C1=NNCC1c1ccccc1)C1CO1 (stereo not given) -4.63%, COc1ccccc1CNC(=O)C1CCN(S(=O)(=O)N2CCCCC2)CC1 -7.8%

— PubChem BioAssay AID894 (National Center for Advancing Translational Sciences (NCATS), 2007)
